# Measurements: the supplement of paper PMC11417369
# This is one part of the list.
# System: PF3D7_0420300 AP2 domain 1 (GST-tagged)
# Experiment: gcPBM binding intensity (ln(normalized median fluorescence intensity)); higher = stronger DNA binding
# In short: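 GST-fused DNA-binding domains of P. falciparum, expressed in E. coli, were applied at about 25 μg on average for 1 h to an Agilent 4 × 180k array of primer-extended double-stranded 36-bp intergenic genomic probes and negative controls. Binding intensity is the highest Masliner-normalised natural-log median intensity across replicate spots of either probe orientation, measured with Alexa488 anti-GST antibody and a 488 nm scan.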
row,Sequence,gcPBM binding intensity (ln)
1,TAGTAAGAATTACTGTGTACTAAAATATTAAAAAGT [XGTACX_site2578],9.26
2,AAATAGTCTTCTCTTGCATGTAACAAATATATATAT [TGCATGCA_site428],9.34
3,AATAAAAACAAACAAAAAAACAAATAAATAAATAAA [CACACA_negctrl_site483],9.65
4,AATATATTGCACCATTGGACCTGAATAATTCTTCCA [CACACA_negctrl_site1071],9.21
5,GTAAGAAACGGACACACACACATATATATATATATA [CACACA_site4593],9.75
6,AAAAAAAAAAATTCCAGTACACACAATAATACTAAA [XGTACX_site5930],9.76
7,TAAATAATCATAGTTCTACACACCTATATTGCAAAA [CACACA_site8190],9.35
8,ATATATATAATATGATGTACTATTTTGATAAAAAAT [XGTACX_site3975],9.25
9,GTTATAGAAGCATTCACACACACACCGACATACACA [CACACA_site4914],10.1
10,ATATATATATAAATATAAATATATATATATATATAT [CACACA_negctrl_site1685],8.82
11,AATAATTAAATATATTTATAACAGGAAAATATTTAT [XGTACX_negctrl_site175],9.27
12,ATAAATTATATTCAAGTGCATGTAACTTATTATTAT,9.23
13,AAAAAAATCACATAATATACTTTATTTTATTTTGTA [GTGCAC_negctrl_site562],9.15
14,ACAAAGAACTATAATACACACAAGAATATATTGGAT [CACACA_site7771],9.94
15,TTATAAGATTTATGTACACACATATACACCCCTCTA [CACACA_site4562],9.43
16,TATATATAGAAACACACACACACATATATATATATT [CACACA_site2539],10.1
17,TCATACATTTTCCTTGCACACATTTATAATTAATGT [CACACA_site614],9.67
18,TTGTAATATATAAAAGTGCATATATGGTTCCATATA [GTGCAC_site9544],9.23
19,TAATTTATTGTACGTGCATGCTATTTTTTATTTTTA [TGCATGCA_site1059],9.54
20,AACAAAAAAACAAACACACACACACCCATATATATA [CACACA_site3652],9.98
21,ATATGTGAATAAAAATGTACGTGTTCTTTTTTTTTT [XGTACX_site320],9.24
22,TGTGGCCCTGCGAGGTGGTCATCATGAATACGAAAA [XGTACX_site1526],8.84
23,TCAAAAATTTATATAGTGCAATATATATATAATGTA,9.08

row,Sequence,gcPBM binding intensity (ln)
1,TGAATTAACAAATAGACACACATATATATATATATA [CACACA_site3195],9.3
2,TTAAAAAATATATGCGTGCACTAATATTTCATATGC,9.05
3,TACTATTTTTATAATACACACATATATTTGTGATAT [CACACA_site1775],9.38
4,ACCATTTGTACTTACGCACACATAAAATATATATAT [CACACA_site1545],9.64
5,TATTATATAATTTTAACACACAAGAATATAAACTTT [CACACA_site1363],9.45
6,TAACAAAATGTAAATAAACACACATATATATATATA [CACACA_site8352],9.37
7,AACATTCTATGTTGCACACAAAGAGAAAAATTTATT [CACACA_site3995],9.33
8,AAAAAGAAAAAACTTACACACATATATACCCCCATG [CACACA_site4463],10.2
9,TGAAGGAATACAGCTCGTACATGTGTAAAGAGATAA [XGTACX_site500],9.32
10,TAATTTAAATGATGTAGTACATATAAATATATCTAA [XGTACX_site262],9.05
11,ATGGAAATTTTATCATGTACATATACCGTTGAATAA [XGTACX_site5420],9.08
12,AATAAAAAAATTAAAATTAAAAAATTAAAACTTAAA [CACACA_negctrl_site987],8.85
13,TACCTATAAAAGTACACACACACACGGATATAAATA [CACACA_site6569],10.3
14,ACTATAAATATATACACATGCGCACACACAAGTGGG [TGCATGCA_site432],9.68
15,ATTGATCTTTATTGTTGTACATTAAACGTTAATTTT [XGTACX_site1788],9.47
16,ATATCAATTTTTGGTGGTACGTAGGAAGTTTCAGAA [XGTACX_site6881],9.27
17,ACTTTAAAAAGATTCACACAAAATATATAAAAATAT [CACACA_site5334],9.08
18,TTATGCAAAAATAAATCAATATGTTGATATGTAAAT [GTGCAC_negctrl_site128],9.28
19,ATATAATTTAATTTCTGTACATAAGAGAAAAAACAA [XGTACX_site4865],9.23
20,AACATATACTGTTTATGTACACATTGTTATATTAAT [XGTACX_site4276],9.48
21,TACATTTTATGCATTTGTACACAAATAAATAAATAA [XGTACX_site2652],8.86
22,TTTTTTTTTTTTTATACACACATTAAAATAAAAAAG [CACACA_site3946],8.87
23,CTCTTCCTTAATTTTTGTACTTAAAATTTTTTTTTT [XGTACX_site1628],9.38

row,Sequence,gcPBM binding intensity (ln)
1,AAAGAAAAAAAAAAAACACACAAAAAAAATCAAAAT [CACACA_site2871],9.94
2,ATATATCTATATAGAAATGTATATATATATATGTGT [TGCATGCA_negctrl_site349],9.27
3,TATTATTCTACTATTATATTCTATATTATTTATAGT [CACACA_negctrl_site499],9.37
4,TAAAATCAATGTTCTTGTACTTAAAATGTTTGTTCT [XGTACX_site5490],9.32
5,AGTATAAAATTTGGTTGTACATTTTTAAAAAAATTA [XGTACX_site7519],8.94
6,AAAATTAAATTATTTACACACAATATTAAAATATTT [CACACA_site3244],9.27
7,AAATAAATTTGACCAGTGCAATAACTTTGTATACCT [GTGCAC_site9446],9.26
8,TATAATATAAAAAAAAGTACACGAATTTTTTTTCAG [XGTACX_site6105],9.04
9,ACAATATATTTTTGAGCATGCGCAAAAGAGAATGCA [TGCATGCA_site566],9.26
10,ATCCAAAAGAAAAATAGTACAGATATGAACAATATG [XGTACX_site6944],9.62
11,AACCCCAAGCCGTACTGTACATATATTTTTATTTTA [XGTACX_site142],9.67
12,AAAAGTTGTATTTGCACACATAAAAAAAAGATATTA [CACACA_site3840],9.24
13,AAATTCAAACAAATTACACACATTTTTTTTTAATTT [CACACA_site3596],9.57
14,AAAAAAAAAAAAAAATGTACATATATATTTATATAT [XGTACX_site229],9.09
15,TCAAAGGAATTTTTATGTACATATAAACTTTATTCT [XGTACX_site3432],9.13
16,TATATATATCTTTTGGTGCATATTTCGAATATATGT,9.3
17,TATATATTTACATATTGTACAATATAAAAATAATTA [XGTACX_site19],9.05
18,AAAAAAAAAATTGAAAGTACACAAATGGGGTATTAT [XGTACX_site3960],9.46
19,TACTGTTTAAAATATACACACATAATCAAAAAAAAA [CACACA_site2510],9.51
20,TCGTTATCCATCTTCACACATATATATAGTAATATA [CACACA_site5492],9.54
21,ATATTTATGTAATGTTTGATTTTTTTTTTATGTGTG [CACACA_negctrl_site1422],9.48
22,ACATATACATACATATGTACATATACATAAATATAT [XGTACX_site1285],9.29
23,CTATACAATAAAAATTGTACATACATATATGTTATA [XGTACX_site5309],9.17

row,Sequence,gcPBM binding intensity (ln)
1,AATTTTTCTTTTTTTTGTACAGAATATATATTTTAT [XGTACX_site1419],9.35
2,ATAATATGTTATTAAGTGCATATTAATTATTATTAT,9.2
3,AAATTTATAAATTAAAGTACATATTTCTTGAATATT [XGTACX_site859],9.01
4,TATTAAATTATATAGACACACATTATGTATATATAT [CACACA_site345],9.34
5,TATAGATACACTTTGTGTACATAAAAATTGTATTAA [XGTACX_site7137],8.96
6,AAATGAAGATTTAAATGTACGAGAGGGTATACAAAT [XGTACX_site5075],9.72
7,CATAATATTAAATCAGTGCAAATATACAGAATAAAT [GTGCAC_site9786],9.5
8,GACTTCTCCATATACACACACCAACAAATATAAAAA [CACACA_site7331],9.68
9,AATAAGCAGAAACACACACACAAAAAAAAAAAAAAA [CACACA_site719],9.75
10,TATGTATAAATATTAACACACAAAAAAAAAAAAAAA [CACACA_site6938],9.24
11,ATATAAACAAAGCAGTGCACGTAAACAAAACATATA [CACACA_negctrl_site1076],9.86
12,TACGAAAGGTAATATTGTACATTACAAAATTTTATA [XGTACX_site5512],9.05
13,AATATATACATATATGTACACACATTACAGATGTAC [CACACA_site8227],9.48
14,ATAGAATCTGGTAGCTGTACGAGTCGTAGAGTGCAG [XGTACX_site2026],9.23
15,AGGACTAATATTTGAACACACATATAATATATACAT [CACACA_site3998],9.54
16,GAAATGTATATTTTTACATGCAAATAAAATATATAA [TGCATGCA_site439],8.94
17,ATAACGACCTAGACGTGTACATACAAAGGAATGAAA [XGTACX_site4870],9.38
18,CATACACATAGACACACACACATATATACCTATATA [CACACA_site6644],10.1
19,ACACAATATATATATTGTACATACACATATTTACTA [XGTACX_site1872],9.45
20,TTTTTCTTGAATCGAAGTACTTAGGAGGGGATATTT [XGTACX_site2862],9.39
